# Measured values taken from a collection of fitness landscapes (doi:10.1016/j.celrep.2020.107928).
# Whole data set: some 81,000 sequences, median “one-hybrid fitness for binding parS DNA” near -0.17, cut for the highest 2% near 0.51. The list shows a part of the results.
# B1: Caulobacter ParB omega fusion; a variant is named by its letters at X, in order, B8GW30 (parent)
# chain: MESVVVGEPGMSEGRRGLGRGLSALLGEVDAAPAQAPGEQLGGSREAPIEILQRNPDQPRRTFREEDLEDLSNSIREKGVLQPILVRPSPDTAGEYQIVAGERAWRAAQRAGLKTVPIMVRELDDLAVLEIGIIENVQRADLNVLEEALSYKVLMEKFERTQENIAQTIGKSXSHVANXMRLLXLPDEVQSYLVSGELTAXHARAIAAAADPVALAKQIIEGGLSVRETEALARKAPNLSAGKSKGGRPPRVKDTDTQALESDLSSVLGLDVSIDHRGSTGTLTITYATLEQLDDLCNRLTRGI
# Variants of: B1
# Assay: one-hybrid fitness for binding parS DNA (scaled: cognate 1, non-cognate 0); higher = stronger binding
# Details: with parS DNA site
# Outline: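 The reporter was HIS3, with the binding site 19 bp from the promoter, in E. coli USO used for bacterial one-hybrid selection of Caulobacter ParB libraries with four specificity codons randomised. Growth was on M9 lacking histidine, with 0.1 mM IPTG and 5 mM 3-AT, for 48 hours at 37°C. Illumina sequencing covered plasmids before and after selection; three replicate libraries were pooled and variants with under 10 reads dropped. A fitness score is the log change in variant-to-wild-type read ratio, rescaled to the cognate and non-cognate references.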
row,Variant,one-hybrid fitness for binding parS DNA
1,WALL,≤ 0.2
2,WWNG,≤ 0.2
3,DPCY,≤ 0.2
4,RQGG,0.945
5,MSFG,≤ 0.2
6,CWKS,≤ 0.2
7,CDFS,≤ 0.2
8,GDPC,0.239
9,QRIQ,≤ 0.2
10,QAKI,≤ 0.2
11,RAMT,0.878
12,GQSS,≤ 0.2
13,SKTL,≤ 0.2
14,HWSS,≤ 0.2
15,MMPR,≤ 0.2
16,IRSC,≤ 0.2
17,PPMC,≤ 0.2
18,YCDF,0.267
19,QTCM,≤ 0.2
20,TYSH,≤ 0.2
21,YWKG,≤ 0.2
22,FAEV,≤ 0.2
23,VNFY,≤ 0.2
24,KECS,≤ 0.2
25,IDRR,≤ 0.2
26,KELS,≤ 0.2

row,Variant,one-hybrid fitness for binding parS DNA
1,TVAR,≤ 0.2
2,TEHH,≤ 0.2
3,SVAE,≤ 0.2
4,PLEA,≤ 0.2
5,PYAP,≤ 0.2
6,MPSM,≤ 0.2
7,TIST,≤ 0.2
8,VHSC,≤ 0.2
9,SNTQ,≤ 0.2
10,RRLP,≤ 0.2
11,RHHK,≤ 0.2
12,LVEH,≤ 0.2
13,STIP,≤ 0.2
14,DFTC,≤ 0.2
15,HKQT,≤ 0.2
16,QSEM,≤ 0.2
17,LLLT,≤ 0.2
18,ADGF,≤ 0.2
19,EQLS,0.217
20,AQPF,≤ 0.2
21,SDKN,≤ 0.2
22,LMHL,≤ 0.2
23,NGLS,≤ 0.2
24,QCAK,≤ 0.2
25,IKIS,≤ 0.2
26,LEVR,≤ 0.2

row,Variant,one-hybrid fitness for binding parS DNA
1,PSRR,≤ 0.2
2,RYCE,≤ 0.2
3,LTLR,≤ 0.2
4,HFYS,≤ 0.2
5,FSTW,≤ 0.2
6,INGR,≤ 0.2
7,VHNV,≤ 0.2
8,QQGN,≤ 0.2
9,IMSG,≤ 0.2
10,FCSS,≤ 0.2
11,HCDS,≤ 0.2
12,TKVL,≤ 0.2
13,QEGH,≤ 0.2
14,TRFY,≤ 0.2
15,SAQW,≤ 0.2
16,RYME,≤ 0.2
17,QTCH,≤ 0.2
18,ALGR,≤ 0.2
19,LVTI,≤ 0.2
20,VLES,≤ 0.2
21,YPTL,≤ 0.2
22,PVHP,≤ 0.2
23,LTAQ,≤ 0.2
24,VVTA,≤ 0.2
25,TAGL,≤ 0.2
26,PWKG,≤ 0.2

row,Variant,one-hybrid fitness for binding parS DNA
1,QARR,≤ 0.2
2,HKGM,≤ 0.2
3,ITSD,≤ 0.2
4,QYCS,≤ 0.2
5,NSPC,≤ 0.2
6,PCYT,≤ 0.2
7,NQRK,≤ 0.2
8,QCPK,≤ 0.2
9,NKMS,≤ 0.2
10,DSNY,≤ 0.2
11,QMFG,≤ 0.2
12,PIKN,≤ 0.2
13,RMAY,0.436
14,GSRP,≤ 0.2
15,ACNH,≤ 0.2
16,QYFF,≤ 0.2
17,SGRR,≤ 0.2
18,THTK,≤ 0.2
19,QLTL,≤ 0.2
20,IWTR,≤ 0.2
21,PLGG,≤ 0.2
22,LPDW,≤ 0.2
23,IPTP,≤ 0.2
24,PWFG,≤ 0.2
25,IAIR,≤ 0.2
26,VTKD,≤ 0.2

row,Variant,one-hybrid fitness for binding parS DNA
1,LIGR,≤ 0.2
2,VSNS,≤ 0.2
3,TNMH,≤ 0.2
4,PCAR,≤ 0.2
5,TLAS,≤ 0.2
6,PLYI,≤ 0.2
7,FTRF,≤ 0.2
8,PILK,≤ 0.2
9,VTAM,≤ 0.2
10,IISG,≤ 0.2
11,LAEG,≤ 0.2
12,SIHF,≤ 0.2
13,GSFE,≤ 0.2
14,ELAM,≤ 0.2
15,RAWQ,≤ 0.2
16,LMYI,≤ 0.2
17,SKSE,≤ 0.2
18,YWNN,≤ 0.2
19,TCMS,≤ 0.2
20,YPPF,≤ 0.2
21,DALF,≤ 0.2
22,LNVG,≤ 0.2
23,HWTL,≤ 0.2
24,HHRW,≤ 0.2
25,CTMT,≤ 0.2
26,VLRT,≤ 0.2

row,Variant,one-hybrid fitness for binding parS DNA
1,HHWV,≤ 0.2
2,VFNL,≤ 0.2
3,HRHA,≤ 0.2
4,WNAK,≤ 0.2
5,DVTV,≤ 0.2
6,DWSY,≤ 0.2
7,CFRF,≤ 0.2
8,SSQC,≤ 0.2
9,TVYG,≤ 0.2
10,GYQS,≤ 0.2
11,WIKW,≤ 0.2
12,VLWE,≤ 0.2
13,EKNS,≤ 0.2
14,IVCR,≤ 0.2
15,EVGP,≤ 0.2
16,SKES,≤ 0.2
17,EAGR,≤ 0.2
18,YKEV,≤ 0.2
19,CRFA,≤ 0.2
20,RNDY,0.256
21,ANLM,≤ 0.2
22,QHRP,≤ 0.2
23,MCFG,≤ 0.2
